# Experimental data published in the supplement of paper PMC8728848.
# This is one part of the list.
# B1: B1257 (Bifidobacterium sp) (protein)
# chain: MKKSIRLVAAIAALAMTAGISACGSSTNGNQAKSDVTAQDVETALTDTSKNVELTVWAYSAKQMEPTVKAFEKKYPHIKINFVNTGAAGDHFTKFQNVVQAQKDIPDVVQMGANKFQQFAVSGALLNFANDSIEKAWSKLYTKTAWAQVHYAGGLYGAPQDATPLANYVRKDILDEHNLQVPESWEDIYNEGIKLHKEDSNKYMGILGSDISFFTNLYRSVGARLWKVNSVDDVELTMNSGKAKEFTEFLQKCLKDGVLEGGTVFTDEFNRSINDGRYATFINENWMGNTYKEQNPSLKGKMVVAAPPSWKGQPYQSSSVGSMMSVSAACPKEKQAAALAFINWLDSDKDAIQSWQDTNNGNFFMAASVYQDDENQRNKKETDGYYANDDVNAVYFDSMDKVNTDWEYLPFMSQVEVVFNDVIVPQMNENGDLVGAMAKAQQELKTYAKDNGFKVTTDAD
# Key:
# Assay in all cases: glycan array binding signal (z-score within array); higher = stronger binding
# Conditions in all cases: glycan notation: IUPAC condensed, linker removed
# [1] = target: Fuc(a1-2)[Gal(a1-3)]Gal(b1-4)GlcNAc(b1-2)Man(a1-3)[Fuc(a1-2)[Gal(a1-3)]Gal(b1-4)GlcNAc(b1-2)Man(a1-6)]Man(b1-4)GlcNAc(b1-4)[Fuc(a1-6)]GlcNAc
# Method in brief: (§1)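 The binding signal is a Z-score computed within each array and averaged over linkers. Arrays of the same protein sequence at different concentrations or buffers were also averaged together. Data originate from 3228 arrays in the Consortium for Functional Glycomics database, kept only where the protein sequence was available.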
# [2] = target: Fuc(a1-2)[Gal(a1-3)]Gal(b1-4)GlcNAc(b1-3)GalNAc
# Method in brief: as §1
# [3] = target: Fuc(a1-2)[Gal(a1-3)]Gal(b1-4)GlcNAc(b1-3)[Fuc(a1-2)[Gal(a1-3)]Gal(b1-4)GlcNAc(b1-6)]GalNAc
# Method in brief: as §1
# [4] = target: Fuc(a1-2)[Gal(a1-3)]Gal(b1-4)GlcNAc(b1-6)GalNAc
# Method in brief: as §1
# [5] = target: Fuc(a1-2)[Gal(a1-3)]Gal(b1-4)[Fuc(a1-3)]Glc
# Method in brief: as §1
# [6] = target: Fuc(a1-2)[Gal(a1-3)]Gal(b1-4)[Fuc(a1-3)]GlcNAc
# Method in brief: as §1
# [7] = target: Fuc(a1-2)[Gal(a1-3)]Gal(b1-4)[Fuc(a1-3)]GlcNAc(b1-3)GalNAc
# Method in brief: as §1
# [8] = target: Fuc(a1-2)[Gal(a1-4)]Gal(b1-4)GlcNAc
# Method in brief: as §1
# [9] = target: Fuc(a1-2)[GalNAc(a1-3)]Gal
# Method in brief: as §1
# [10] = target: Fuc(a1-2)[GalNAc(a1-3)]Gal(b1-3)GalNAc(a1-3)[Fuc(a1-2)]Gal(b1-4)GlcNAc
# Method in brief: as §1
# [11] = target: Fuc(a1-2)[GalNAc(a1-3)]Gal(b1-3)GalNAc(b1-3)Gal(a1-4)Gal(b1-4)Glc
# Method in brief: as §1
# [12] = target: Fuc(a1-2)[GalNAc(a1-3)]Gal(b1-3)GlcNAc
# Method in brief: as §1
# [13] = target: Fuc(a1-2)[GalNAc(a1-3)]Gal(b1-3)GlcNAc(b1-2)Man(a1-3)[Fuc(a1-2)[GalNAc(a1-3)]Gal(b1-3)GlcNAc(b1-2)Man(a1-6)]Man(b1-4)GlcNAc(b1-4)GlcNAc
# Method in brief: as §1
# [14] = target: Fuc(a1-2)[GalNAc(a1-3)]Gal(b1-3)GlcNAc(b1-2)Man(a1-3)[Fuc(a1-2)[GalNAc(a1-3)]Gal(b1-3)GlcNAc(b1-2)Man(a1-6)]Man(b1-4)GlcNAc(b1-4)[Fuc(a1-6)]GlcNAc
# Method in brief: as §1
# [15] = target: Fuc(a1-2)[GalNAc(a1-3)]Gal(b1-3)GlcNAc(b1-3)GalNAc
# Method in brief: as §1
# [16] = target: Fuc(a1-2)[GalNAc(a1-3)]Gal(b1-3)GlcNAc(b1-6)GalNAc
# Method in brief: as §1
# [17] = target: Fuc(a1-2)[GalNAc(a1-3)]Gal(b1-4)Glc
# Method in brief: as §1
# [18] = target: Fuc(a1-2)[GalNAc(a1-3)]Gal(b1-4)GlcNAc
# Method in brief: as §1
# [19] = target: Fuc(a1-2)[GalNAc(a1-3)]Gal(b1-4)GlcNAc(b1-2)Man
# Method in brief: as §1
# [20] = target: Fuc(a1-2)[GalNAc(a1-3)]Gal(b1-4)GlcNAc(b1-2)Man(a1-3)[Fuc(a1-2)[GalNAc(a1-3)]Gal(b1-4)GlcNAc(b1-2)Man(a1-6)]Man(b1-4)GlcNAc(b1-4)GlcNAc
# Method in brief: as §1
# [21] = target: Fuc(a1-2)[GalNAc(a1-3)]Gal(b1-4)GlcNAc(b1-2)Man(a1-3)[Fuc(a1-2)[GalNAc(a1-3)]Gal(b1-4)GlcNAc(b1-2)Man(a1-6)]Man(b1-4)GlcNAc(b1-4)[Fuc(a1-6)]GlcNAc
# Method in brief: as §1
# [22] = target: Fuc(a1-2)[GalNAc(a1-3)]Gal(b1-4)GlcNAc(b1-3)Gal(b1-4)GlcNAc
# Method in brief: as §1
# [23] = target: Fuc(a1-2)[GalNAc(a1-3)]Gal(b1-4)GlcNAc(b1-3)Gal(b1-4)GlcNAc(b1-3)Gal(b1-4)GlcNAc
# Method in brief: as §1
# [24] = target: Fuc(a1-2)[GalNAc(a1-3)]Gal(b1-4)GlcNAc(b1-3)GalNAc
# Method in brief: as §1
# [25] = target: Fuc(a1-2)[GalNAc(a1-3)]Gal(b1-4)GlcNAc(b1-3)[Fuc(a1-2)[GalNAc(a1-3)]Gal(b1-4)GlcNAc(b1-6)]GalNAc
# Method in brief: as §1
# [26] = target: Fuc(a1-2)[GalNAc(a1-3)]Gal(b1-4)GlcNAc(b1-6)GalNAc
# Method in brief: as §1
# [27] = target: Fuc(a1-2)[GalNAc(a1-3)]Gal(b1-4)[Fuc(a1-3)]GlcNAc
# Method in brief: as §1
# [28] = target: Fuc(a1-2)[GalNAc(a1-3)]Gal(b1-4)[Fuc(a1-3)]GlcNAc(b1-3)GalNAc
# Method in brief: as §1
# [29] = target: Fuc(a1-2)[GalNAc(a1-4)]Gal(b1-4)GlcNAc
# Method in brief: as §1
# [30] = target: Fuc(a1-2)[GalNAc(b1-3)]Gal
# Method in brief: as §1
# [31] = target: Fuc(a1-3)GlcNAc
# Method in brief: as §1
# [32] = target: Fuc(a1-3)[Gal(b1-4)]Glc6S
# Method in brief: as §1
# [33] = target: Fuc(a1-3)[Gal(b1-4)]GlcNAc
# Method in brief: as §1
# [34] = target: Fuc(a1-3)[Gal(b1-4)]GlcNAc(b1-2)Man
# Method in brief: as §1
# [35] = target: Fuc(a1-3)[Gal(b1-4)]GlcNAc(b1-2)Man(a1-3)[Fuc(a1-3)[Gal(b1-4)]GlcNAc(b1-2)Man(a1-6)]Man(b1-4)GlcNAc(b1-4)GlcNAc
# Method in brief: as §1
# [36] = target: Fuc(a1-3)[Gal(b1-4)]GlcNAc(b1-2)Man(a1-3)[Fuc(a1-3)[Gal(b1-4)]GlcNAc(b1-2)Man(a1-6)]Man(b1-4)GlcNAc(b1-4)[Fuc(a1-6)]GlcNAc
# Method in brief: as §1
# [37] = target: Fuc(a1-3)[Gal(b1-4)]GlcNAc(b1-3)Gal(b1-3)[Fuc(a1-4)]GlcNAc
# Method in brief: as §1
# [38] = target: Fuc(a1-3)[Gal(b1-4)]GlcNAc(b1-3)Gal(b1-4)[Fuc(a1-3)]GlcNAc
# Method in brief: as §1
# [39] = target: Fuc(a1-3)[Gal(b1-4)]GlcNAc(b1-3)Gal(b1-4)[Fuc(a1-3)]GlcNAc(b1-3)Gal(b1-4)[Fuc(a1-3)]GlcNAc
# Method in brief: as §1
# [40] = target: Fuc(a1-3)[Gal(b1-4)]GlcNAc(b1-3)GalNAc
# Method in brief: as §1
# [41] = target: Fuc(a1-3)[Gal(b1-4)]GlcNAc(b1-6)GalNAc
# Method in brief: as §1
# [42] = target: Fuc(a1-3)[Gal(b1-4)]GlcNAc(b1-6)[Gal(b1-3)GlcNAc(b1-3)]Gal(b1-4)Glc
# Method in brief: as §1
# [43] = target: Fuc(a1-3)[Gal(b1-4)]GlcNAc6S
# Method in brief: as §1
# [44] = target: Fuc(a1-3)[Gal3S(b1-4)]Glc
# Method in brief: as §1
# [45] = target: Fuc(a1-3)[Gal3S(b1-4)]GlcNAc
# Method in brief: as §1
binder,measurement,setting,value
B1,glycan array binding signal (z-score),[1],-0.043
same,glycan array binding signal (z-score),[2],-0.026
same,glycan array binding signal (z-score),[3],0.214
same,glycan array binding signal (z-score),[4],-0.096
same,glycan array binding signal (z-score),[5],-0.192
same,glycan array binding signal (z-score),[6],-0.069
same,glycan array binding signal (z-score),[7],0.083
same,glycan array binding signal (z-score),[8],-0.086
same,glycan array binding signal (z-score),[9],-0.138
same,glycan array binding signal (z-score),[10],-0.153
same,glycan array binding signal (z-score),[11],-0.087
same,glycan array binding signal (z-score),[12],-0.13
same,glycan array binding signal (z-score),[13],-0.078
same,glycan array binding signal (z-score),[14],-0.046
same,glycan array binding signal (z-score),[15],0.025
same,glycan array binding signal (z-score),[16],-0.144
same,glycan array binding signal (z-score),[17],-0.044
same,glycan array binding signal (z-score),[18],-0.149
same,glycan array binding signal (z-score),[19],-0.093
same,glycan array binding signal (z-score),[20],0.131
same,glycan array binding signal (z-score),[21],0.02
same,glycan array binding signal (z-score),[22],-0.105
same,glycan array binding signal (z-score),[23],-0.032
same,glycan array binding signal (z-score),[24],-0.017
same,glycan array binding signal (z-score),[25],-0.037
same,glycan array binding signal (z-score),[26],-0.097
same,glycan array binding signal (z-score),[27],-0.026
same,glycan array binding signal (z-score),[28],0.001
same,glycan array binding signal (z-score),[29],-0.147
same,glycan array binding signal (z-score),[30],-0.058
same,glycan array binding signal (z-score),[31],-0.11
same,glycan array binding signal (z-score),[32],-0.174
same,glycan array binding signal (z-score),[33],-0.078
same,glycan array binding signal (z-score),[34],0.049
same,glycan array binding signal (z-score),[35],0.139
same,glycan array binding signal (z-score),[36],0.166
same,glycan array binding signal (z-score),[37],-0.105
same,glycan array binding signal (z-score),[38],0.159
same,glycan array binding signal (z-score),[39],-0.151
same,glycan array binding signal (z-score),[40],0.013
same,glycan array binding signal (z-score),[41],0.053
same,glycan array binding signal (z-score),[42],-0.064
same,glycan array binding signal (z-score),[43],-0.027
same,glycan array binding signal (z-score),[44],-0.008
same,glycan array binding signal (z-score),[45],-0.089
